Laboratory results published in the supplement of paper PMC3334620.
Whole data set: some 33,000 sequences, median “E-score (-0.5 to 0.5)” near -0.012, cut for the highest 2% near 0.27. The list shows a part of the results.

Target: T1, Vhr1 (UniProt P40522)
T1 sequence: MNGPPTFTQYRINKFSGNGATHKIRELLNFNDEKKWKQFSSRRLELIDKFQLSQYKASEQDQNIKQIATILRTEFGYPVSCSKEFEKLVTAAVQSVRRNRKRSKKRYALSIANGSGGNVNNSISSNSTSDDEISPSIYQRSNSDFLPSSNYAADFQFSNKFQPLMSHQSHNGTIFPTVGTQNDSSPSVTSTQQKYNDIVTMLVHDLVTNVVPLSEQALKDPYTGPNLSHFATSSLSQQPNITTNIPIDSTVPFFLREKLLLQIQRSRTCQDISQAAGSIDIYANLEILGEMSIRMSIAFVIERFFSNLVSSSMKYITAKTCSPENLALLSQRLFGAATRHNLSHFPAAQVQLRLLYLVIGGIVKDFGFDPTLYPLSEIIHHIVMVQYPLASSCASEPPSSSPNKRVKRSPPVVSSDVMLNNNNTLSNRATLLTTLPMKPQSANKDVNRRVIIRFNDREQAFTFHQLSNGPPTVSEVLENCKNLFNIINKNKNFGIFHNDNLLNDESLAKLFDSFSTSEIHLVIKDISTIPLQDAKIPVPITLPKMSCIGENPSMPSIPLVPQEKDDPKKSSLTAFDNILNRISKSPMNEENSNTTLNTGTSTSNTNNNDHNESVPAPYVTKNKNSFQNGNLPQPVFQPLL
Assay: PBM E-score (8-mer binding enrichment) (E-score (-0.5 to 0.5)); higher = stronger / more preferred TF binding; most listed sequences are background and not binding sites
Settings: protein concentration: 200 nM; construct: GST-full length
How it was run: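 Full-length yeast transcription factors or their DNA-binding domains, GST-tagged and expressed with PURExpress, were applied at about 100-200 nM to universal all-10-mer Agilent arrays. These arrays had been made double-stranded by primer extension on fresh or once-stripped slides. Detection used fluorescent anti-GST, normalisation used masliner, and E-scores for ungapped eight-base words pooled with reverse complements came from the Universal PBM Analysis Suite.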

Sequence | PBM E-score
ACTGGAAA | -0.0251
GGCCTGAC | 0.00742
ACATTAGG | -0.191
ACGCCTCT | -0.119
CGCCGATA | -0.0619
ACCGAAGC | 0.053
ATCGCGCG | 0.265
ACGAAGGC | -0.167
CGAGCCTC | 0.0576
CCGCAGGA | -0.0544
ACAGAAGT | -0.197
ATCGATCA | 0.14
TCACCTGA | 0.0724
GCCAGCCC | -0.00869
CCGTAAAC | -0.0934
CCATGGAC | 0.00162
AGGCGACC | -0.143
GATCATCA | 0.0291
AAAGGTCG | -0.106
TCATTAAA | 0.134
CTTACGTC | -0.22
TCTTAAAA | -0.354
CTTAGTAA | -0.0159
GTTATGGA | 0.038
ACTGTAGG | 0.11

Sequence | PBM E-score
ACGAAGGA | -0.158
ACTCTACA | 0.0564
AGCACGCT | -0.102
CACTCCGA | -0.0188
TCCATGCA | 0.201
AGTGCTTG | -0.102
CGAATGTC | 0.0181
ATTTGCCG | -0.174
CTCTCCTA | -0.0133
AACATACG | 0.0846
AAGCACCA | -0.146
AATGCCCG | -0.179
ACCAATAG | 0.00571
CCTCTGCC | -0.286
GGACGCGA | -0.0696
AGCTGTAT | -0.146
ACCTTACC | 0.0981
TAGCAACA | -0.0609
CCGCTAGC | -0.266
CGAGTTTC | -0.00759
AGTGGTTG | 0.183
ACGGCGTG | 0.0502
GAAGGACC | -0.221
GAATAGCC | -0.117
AACAGCGA | -0.098

Sequence | PBM E-score
ATGAACAA | 0.125
GAGGCTAC | -0.056
AATAGGCA | 0.0547
AGTAAATC | 0.0723
GGATAAGA | -0.0576
AACACGCC | 0.0583
GAAATGTC | -0.0746
AAGATTGA | 0.0603
GAATAGTA | 0.0443
CGTATCCA | 0.113
CTAAGAAG | -0.0875
CAAACCCA | 0.125
GAGCGACC | -0.162
CACTCCCG | -0.0123
CGGACAAG | 0.0244
CTCTCTGC | -0.0337
ACCCACGT | 0.192
AAACGGTA | 0.0278
ATCGTTGA | 0.132
AGCATTAG | -0.077
ATCGTCAA | -0.0989
CACCTTAG | -0.0528
ACGGACTC | -0.0189
GCAACCCC | -0.00688
ACTGAGAA | -0.0436

Sequence | PBM E-score
ATGACGAG | -0.122
ATAAATGG | -0.00695
CGGGATTA | 0.107
ACATTTAT | -0.0139
GCTCTTTA | -0.1
CCATTATA | 0.0929
ATGGTTTA | 0.0862
CTCGTTGC | 0.171
TACTGGGA | 0.164
TGTGTTAA | 0.0871
AGCGAGGG | -0.163
CGAAAGAA | -0.0849
AGTGCGAC | 0.0175
ACCCGAGG | -0.147
CGTCTTGA | -0.0142
AACAGAAA | -0.157
ACGATGGC | 0.0749
GTACAACA | 0.115
GTACACAA | 0.15
GCAGGAAC | -0.1
CTATGACA | 0.123
ATACATGC | 0.194
CGCGTTCA | 0.0408
CATGCCGG | 0.121
ATCAAAGG | -0.0468

Sequence | PBM E-score
ATGAGACC | 0.0789
CAAGGGCA | -0.168
ACGCCATC | 0.0312
CCACCGAA | 0.0828
ATTCATGA | 0.181
AATTATCC | 0.00222
ACATGGTA | 0.132
TACATTAA | 0.144
AGATTTAG | 0.0658
CTCTTGTC | -0.0607
ATGGCCAA | -0.206
GTGTAATA | 0.0802
GCGGGCCA | 0.0258
GTGCTTAA | -0.136
CCAGAAGG | -0.0621
ACATTTTC | 0.0698
GACCTCCC | -0.142
TAGGATAA | -0.173
CGCTAACC | -0.0975
ATCGTCAC | 0.163
TCGGGGCA | -0.0261
TCATCGGA | 0.0448
ACCTAATA | 0.0232
GGACATGA | -0.00186
ATCCTAAA | -0.166

Sequence | PBM E-score
ACAACTAA | 0.0898
ACTGACAA | 0.2
GCAAGTCA | 0.279
TAGCGACA | -0.161
CACCAGAG | 0.093
AGTTTTAG | -0.129
GTTACTTA | -0.0888
GCGCCCGA | 0.153
AAGACGCA | -0.0225
AGGAAGAC | -0.0277
ACACGATG | 0.15
GGTATAAC | -0.0444
ATCGGCGC | -0.057
ACGCCTCA | -0.069
GCATTAAC | 0.0031
AAATAAGG | -0.0132
AGCTCCAC | -0.0312
GGACGCAC | 0.141
GTAGAATA | 0.123
TCCACGCA | -0.129
ACGTGACG | -0.137
CTAGCAAC | 0.0372
CACGGAAA | -0.129
ATCACAAT | 0.168
TAGATGGA | -0.115

Sequence | PBM E-score
GAGTCCGC | 0.224
AAGCCAGA | -0.165
AACCTAAT | -0.0442
ACTACCGA | -0.146
ATTCCGCG | 0.0866
AATATGAA | -0.0263
CTGCCTGA | 0.142
CAGCTCGG | 0.0332
ACACGAAT | 0.0686
GTATCGGA | -0.254
AATTCAAA | -0.204
ACCAAGGG | -0.0786
GGGTGTAA | 0.0595
GGTCGCGA | 0.194
AGGGTGCC | -0.121
ATAGTCAA | 0.165
GTGACATA | 0.132
CTCCAGAG | 0.00702
CCTCCTAG | 0.0743
AGGACTGG | 0.113
CCACAGCC | 0.0804
CCCAGTCC | 0.0481
